Measured values reported in PubChem BioAssay AID485344 (National Center for Advancing Translational Sciences (NCATS), 2010).
Among all 340,000 compounds or so, about 6,900 (2%) were called active. No stated cut-off is given here; in the data, active means inhibition above about 30%; inactive means below that, where a call was filed. The list shows a part of the results, in another mix than the full data. Entries without a call were filed so in the source.

biological target: D(2) dopamine receptor (Homo sapiens) (UniProt P14416); experiment: HTS Assay for Allosteric Antagonists of the Human D2 Dopamine Receptor: Primary Screen for Antagonists; conditions: HEK293 TREx D2 cells, calcium flux, dopamine EC80; at 10 µM; stronger effect = higher value; further: 0% is about no effect
How it was run: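 Tetracycline-induced HEK293 TREx cells expressing D2 receptor forced-coupled to calcium signalling, loaded with no-wash calcium dye. Compounds added and calcium flux read 180 s, then dopamine added at EC80 and read a further 180 s.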

UniProt P14416, sequence (P14416 whole entry, looked up): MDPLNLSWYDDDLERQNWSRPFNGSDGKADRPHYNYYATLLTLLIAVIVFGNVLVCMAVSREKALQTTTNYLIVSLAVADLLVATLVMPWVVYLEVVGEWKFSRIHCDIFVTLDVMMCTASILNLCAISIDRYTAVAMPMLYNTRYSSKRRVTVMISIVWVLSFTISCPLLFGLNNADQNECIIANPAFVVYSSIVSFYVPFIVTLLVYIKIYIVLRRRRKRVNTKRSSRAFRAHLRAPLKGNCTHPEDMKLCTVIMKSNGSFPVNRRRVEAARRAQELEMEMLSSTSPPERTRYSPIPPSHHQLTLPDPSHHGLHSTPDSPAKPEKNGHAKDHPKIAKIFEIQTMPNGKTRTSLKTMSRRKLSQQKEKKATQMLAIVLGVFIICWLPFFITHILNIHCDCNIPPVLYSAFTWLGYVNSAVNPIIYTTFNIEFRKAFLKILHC

Q: With `O=c1c2cc3c(cc2n(Cc2cccc(F)c2)c(=O)n1Cc1nc(-c2ccccc2)no1)OCO3` as the compound, how does the inhibition read?
A: 3.88%

Q: How did the inhibition turn out when `CCc1ccccc1NC(=O)CC(C)n1nc(C)cc1C` (configuration not stated) was run?
A: 7.32%

Q: How did the inhibition turn out when `COc1cccc(C(=O)Nc2ccccc2-c2nc(-c3ccc(C)cc3)no2)c1` was run?
A: 17.7%

Q: How did the inhibition turn out when `Cc1ccc(N2C(=O)c3n[nH]c(C)c3C2c2ccc(C(C)C)cc2)cc1` (configuration not stated) was run?
A: 1.09%

Q: For `CCOC(=O)c1c(S(=O)(=O)N2CCN(c3ccccc3OC)CC2)c(C)n(C)c1C`, which inhibition is on record?
A: 9.59%

Q: How did the inhibition turn out when `Cn1c(=NC(=O)c2ccc(F)cc2)sc2cc(Br)ccc21` was run?
A: 8.67%

Q: With `CCOCN(C(=O)Cn1c(C)nc2ccccc21)c1c(C)cccc1CC` as the compound, how does the inhibition read?
A: -4.5%

Q: How did the inhibition turn out when `Cc1ccc(Cl)cc1-n1c(=O)cc(N2CCN(c3ccccc3)CC2)[nH]c1=O` was run?
A: -1.46%

Q: Which inhibition does the source give for `Cc1cc2n(n1)CCCN2C(=O)Nc1ccccc1F` here?
A: 4.11%

Q: For `Cc1cccc(-c2noc(-c3ccc(NC4CCCC4)c([N+](=O)[O-])c3)n2)c1`, which inhibition is on record?
A: 2.52%

Q: For `COc1cc2c(cc1NC(=O)CN1CCN(S(=O)(=O)c3ccc(C)cc3)CC1)oc1ccccc12`, which inhibition is on record?
A: active: 41.8%

Q: How did the inhibition turn out when `CN1CCC=C(C(=O)N2c3ccccc3Sc3ccc(Cl)cc32)C1` was run?
A: active: 38.6%

Q: With `Cc1ccc(OCC(=O)Nc2cccc(C(=O)OCc3cc(=O)n4cc(C)sc4n3)c2)cc1` as the compound, how does the inhibition read?
A: -14.2%

Q: `O=C(CC1N=C2c3ccccc3N=C(SCc3cccc(Cl)c3)N2C1=O)NC1CCCCC1` (configuration not stated) was tested. Which inhibition did it give?
A: -6.5%

Q: `CCCCCNC(=O)C1CCC(Cn2c(=O)c3sccc3n(CC(=O)N3CCCC3)c2=O)CC1` (configuration not stated) was tested. Which inhibition did it give?
A: -15.9%

Q: Which inhibition does the source give for `COc1cc(OC)c(NC(=O)c2nc(-c3ccncc3)no2)cc1Cl` here?
A: 22.4%

Q: Which inhibition does the source give for `COc1ccc(NC(=O)CSc2nnc(-c3nnn(-c4ccc(F)cc4)c3C)o2)cc1` here?
A: 12.3%

Q: With `COc1cccc(C(=O)N2CCC(N3CCN(Cc4ccc(F)cc4)C(=O)C3=O)CC2)c1` as the compound, how does the inhibition read?
A: 3.37%

Q: With `CCc1nnc(SCc2nc(-c3ccccc3F)oc2C)c2cc3sccc3n12` as the compound, how does the inhibition read?
A: 16.5%

Q: Which inhibition does the source give for `CCOc1ccccc1NC(=O)c1c(NCc2ccc(OC)c(OC)c2OC)sc2c1CCC(C)C2` (configuration not stated) here?
A: 16.4%

Q: With `COc1cccc(C(=O)N2CCC(c3nc4ccccc4s3)CC2)c1` as the compound, how does the inhibition read?
A: -20.5%

Q: Which inhibition does the source give for `CCOc1ccccc1NC(=O)c1ccc2c(c1)CCCN2S(C)(=O)=O` here?
A: -15.2%

Q: For `Cc1ccc(C(=O)Nc2nnc(SCc3cc(=O)c4c(C)ccc(C)c4[nH]3)s2)cc1`, which inhibition is on record?
A: 4.38%

Q: For `O=C(C1COc2ccccc2O1)N(Cc1cccnc1)c1nc2c(F)cc(F)cc2s1` (configuration not stated), which inhibition is on record?
A: 5.37%

Q: Which inhibition does the source give for `O=C(Nc1ccc2nn(-c3ccc(F)cc3)nc2c1)c1cccc2c(Cl)cccc12` here?
A: -5.27%

Q: For `CC(=O)c1ccc(NC(=O)CSc2nccn2Cc2ccco2)cc1`, which inhibition is on record?
A: 8.95%

Q: With `CC(C)c1ccc(S(=O)(=O)Nc2ccc(O)c(Sc3nc4ccccc4s3)c2)cc1` as the compound, how does the inhibition read?
A: 2.36%

Q: Which inhibition does the source give for `CSc1cccc(NC(=O)C2CCN(S(=O)(=O)c3ccc4[nH]c(=O)ccc4c3)CC2)c1` here?
A: -20.3%

Q: For `CSc1ccc(CN2CCC(CO)(CCOc3ccccc3)CC2)cc1`, which inhibition is on record?
A: active: 50.5%

Q: `COc1cc2c(=O)c(S(=O)(=O)c3ccc(C)cc3)cn(Cc3cccc(C)c3)c2cc1OC` was tested. Which inhibition did it give?
A: -13.6%

Q: With `CC1CN(C(=O)N2CCC(C(=O)NCCC3=CCCCC3)CC2)c2ccccc2O1` (configuration not stated) as the compound, how does the inhibition read?
A: -12.3%

Q: Which inhibition does the source give for `CCCCNC(=O)C1CCCN(c2nnc(C)c3c(C)n(-c4ccc(Cl)cc4)nc23)C1` (configuration not stated) here?
A: -10.2%

Q: For `CC(=O)c1cccc(NC(=O)c2noc3c2CC(C)CC3)c1` (configuration not stated), which inhibition is on record?
A: -5.67%

Q: For `COc1ccc(C(=O)N2CCN(C(=O)COc3ccc(Br)cc3)CC2)cc1OC`, which inhibition is on record?
A: 7.46%

Q: With `COc1ccc(CCNC(=O)CN(C)S(=O)(=O)c2cccs2)cc1` as the compound, how does the inhibition read?
A: active: 32.2%

Q: How did the inhibition turn out when `CCCN1CCC(=O)N([C@H](COc2ccccc2)Cc2ccccc2)CC1` was run?
A: active: 39.3%

Q: For `Cc1cc2c(cc1C)C(c1cccc(OC(C)C)c1)CC(=O)N2` (configuration not stated), which inhibition is on record?
A: -10.1%

Q: For `Cn1c(SCC(=O)Nc2ccc(Br)cc2F)nnc1-c1ccco1`, which inhibition is on record?
A: active: 31%

Q: With `CCCC(=O)Nc1ccc(NC(=O)c2sc3ccccc3c2Cl)cc1` as the compound, how does the inhibition read?
A: -8.89%

Q: Which inhibition does the source give for `COCCn1c(SCC(=O)c2ccccc2)nc2cc(C(=O)NC3CCCC3)ccc2c1=O` here?
A: -1.82%

Q: With `CCc1ccc2nc(N(Cc3cccnc3)C(=O)c3cccs3)sc2c1` as the compound, how does the inhibition read?
A: -17.1%

Q: How did the inhibition turn out when `CCSc1nc2c([nH]c3ccccc32)c(=O)n1-c1ccc(OC)cc1` was run?
A: -15.3%

Q: How did the inhibition turn out when `Cc1cccc(NC(=O)CCNS(=O)(=O)c2ccc3c(c2)CCCC(=O)N3)c1C` was run?
A: -2.73%

Q: For `CCOC(=O)c1[nH]c2c(c1Cc1ccccc1)C(=O)CC(c1ccc(OC)cc1)C2` (configuration not stated), which inhibition is on record?
A: -25.8%

Q: For `O=C(O)CCCC(=O)N1CCc2cc(S(=O)(=O)NCc3ccccc3)ccc21`, which inhibition is on record?
A: 3.51%

Q: Which inhibition does the source give for `CN(C)c1ccc(CNc2nc(-c3ccco3)nn2S(C)(=O)=O)cc1` here?
A: -18.8%

Q: `CCOC(=O)c1ccc(NC(=O)c2cnc(N3CCCC3)nc2C)cc1` was tested. Which inhibition did it give?
A: 4.18%

Q: With `CN(C)c1ccc(NC(=O)Cn2c(SCc3ccc(F)cc3)nc3cccnc32)cc1` as the compound, how does the inhibition read?
A: -1.64%

Q: How did the inhibition turn out when `COc1ccc(C/C(C)=N/NC(=S)Nc2ccc(C(C)C)cc2)cc1` was run?
A: active: 36.5%

Q: For `CCc1ccc(NC(=O)CSC2=Nc3ccccc3C3=NC(CC(=O)NCc4ccc5c(c4)OCO5)C(=O)N23)cc1` (configuration not stated), which inhibition is on record?
A: -3.41%

Q: Which inhibition does the source give for `Cc1ccccc1Cn1c(=O)n(CCCCC(=O)NCCc2ccccc2)c(=O)c2ccccc21` here?
A: -2.22%

Q: `CCc1ccc2occ(CC(=O)Nc3c(C(=O)Nc4ccc(Cl)cc4)oc4ccccc34)c2c1` was tested. Which inhibition did it give?
A: -7.22%

Q: Which inhibition does the source give for `CN(C)CCNC(=O)c1ccc2nc(CCc3ccccc3)oc2c1` here?
A: -10.2%

Q: How did the inhibition turn out when `CC(C)(C)OC(=O)N1CCC(c2c(C(=O)Nc3ccc4c(c3)OCO4)cnn2-c2ccc(F)cc2F)CC1` was run?
A: 2.18%

Q: How did the inhibition turn out when `COc1ccc(NC(=O)/C(C#N)=C/c2ccc(C)o2)cc1` was run?
A: 4.08%

Q: `Cc1cc(-c2ccc(C)c(S(=O)(=O)N(Cc3cccs3)C(C)C)c2)on1` was tested. Which inhibition did it give?
A: -5.38%

Q: `CCN(CC)CCNC(=O)c1cc2cc(Br)ccc2s1` was tested. Which inhibition did it give?
A: active: 50.3%

Q: How did the inhibition turn out when `COc1ccc(-n2c(=O)c3sc4ccccc4c3n(CC(=O)N3CCCC3)c2=O)cc1` was run?
A: -4.3%

Q: `CCn1cc(S(=O)(=O)c2cccc(C)c2)c(=O)c2cc(F)c(N3CCCCC3C)cc21` (configuration not stated) was tested. Which inhibition did it give?
A: -20.1%

Q: `Cc1nc(-c2ccc(C)c(N3CCN(C(=O)Nc4ccc(Br)cc4)CC3)c2)no1` was tested. Which inhibition did it give?
A: -4.49%

Q: For `COc1ccc(-n2c(SCC(=O)N3CCCc4ccccc43)nc3c([nH]c4ccccc43)c2=O)cc1`, which inhibition is on record?
A: 8.35%

Q: `COc1ccc(-c2cn3c(n2)sc2cc(C(=O)Nc4ccccc4F)ccc23)cc1` was tested. Which inhibition did it give?
A: 17.2%
